This is one part of the list.
These sequences were tested on PfHDP1 homeodomain (GST-tagged) (assay: gcPBM binding intensity (ln(normalized median fluorescence intensity)); higher = stronger DNA binding).
Summary of the method: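 An Agilent 4 × 180k array of primer-extended double-stranded 36-bp intergenic genomic probes, with negative controls, was incubated for 1 h with GST-tagged P. falciparum DNA-binding domains expressed in E. coli. Alexa488 anti-GST antibody detected bound protein, scanned at 488 nm. Binding intensity is the highest Masliner-normalised natural-log median intensity across replicate spots of either probe orientation.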
With “ACTTTGCTCTACAATGCATGCTCATTTAACAAGGCA [TGCATGCA_site676]” the “gcPBM binding intensity (ln)” value was 8.03. In the case of “AAGAAAAAAAAAATTACACACTGCGGACATACACAA [CACACA_site4838]”, the “gcPBM binding intensity (ln)” value is reported as 6.69. In the case of “TCAATTTTACTTGTTTGTACATAAAATAATAAGGTT [XGTACX_site3732]”, the “gcPBM binding intensity (ln)” value is reported as 6.25. With “AACATACACATATACACACACACATATATACCTATA [CACACA_site6643]” the “gcPBM binding intensity (ln)” value was 7.76. For “ATATTTTGTTTTTGTTCTTTTTTTTTCTTTTTTTTT [CACACA_negctrl_site1342]”, the “gcPBM binding intensity (ln)” value was 6.18. In the case of “AATTGGGAAGGACATGCATGAGAAATTAATATTGCA [TGCATGCA_site424]”, the “gcPBM binding intensity (ln)” value is reported as 6.47. In the case of “TATTATTATTATGGTAGTACATGTAGGTTATTAAAA [XGTACX_site5742]”, the “gcPBM binding intensity (ln)” value is reported as 6.85. For “ATATTTATAAATTGCACACAAATAATAACATTCTAT [CACACA_site2357]”, the “gcPBM binding intensity (ln)” value was 10.4. With “TGTATAAATATATGCACACATATATATATTTATATA [CACACA_site3473]” the “gcPBM binding intensity (ln)” value was 10. With “TCAATAAATGAATATGCATGCACGCTCTTTAGAGAT [TGCATGCA_site553]” the “gcPBM binding intensity (ln)” value was 9.32. In the case of “GAGAAAAAAAAAAAAAAACACACGGTACATTCAAAG [CACACA_site1767]”, the “gcPBM binding intensity (ln)” value is reported as 6.11. For “TAATTCGCATTTTATACACACATTCGAACCTTTTTT [CACACA_site7549]”, the “gcPBM binding intensity (ln)” value was 7.08. For “AAATTAATACATTATTGTACTTTTCATGTGCAGAAA [XGTACX_site8284]”, the “gcPBM binding intensity (ln)” value was 8.11. “CGGATGAATATATATGCACACATCTTTTGTAAAAAT [CACACA_site3190]” was tested, and the “gcPBM binding intensity (ln)” value was 9.53. In the case of “CATATTACATTAAATTGTACATATATATATATATAT [XGTACX_site3295]”, the “gcPBM binding intensity (ln)” value is reported as 9.47. In the case of “TATTTATATGTATATACATGCACATATATATGAAAC [TGCATGCA_site1005]”, the “gcPBM binding intensity (ln)” value is reported as 8.8. For “ATATATATATATATATGTACATATTTTTATTTATAC [XGTACX_site2858]”, the “gcPBM binding intensity (ln)” value was 9.32. “TATGTAATGTTTACAACACACAAATTATAAATACAA [CACACA_site1771]” was tested, and the “gcPBM binding intensity (ln)” value was 6.31. For “ACCTATATACTAAATGCACACTTATATATTTATATA [CACACA_site5371]”, the “gcPBM binding intensity (ln)” value was 10.2. In the case of “CTATTTTATATGTGCACACATATACTCAGACAAATA [CACACA_site4761]”, the “gcPBM binding intensity (ln)” value is reported as 10.6. With “AAAAAAAAAAAAAAATGTACATATATATAAATATAT [XGTACX_site6768]” the “gcPBM binding intensity (ln)” value was 6.44. In the case of “ACTAATAATTTGTCGGTGCATAAAATTATTTTTATT [GTGCAC_site9840]”, the “gcPBM binding intensity (ln)” value is reported as 10.2. In the case of “CTACATAATAAAAAAAGTACATTCTAATAAATTGAC [XGTACX_site4504]”, the “gcPBM binding intensity (ln)” value is reported as 6.05. For “ATATAAATTCAAATTACACACATTTATTTTTTTTAC [CACACA_site53]”, the “gcPBM binding intensity (ln)” value was 6.66. With “AATTTTATACGATAAACATGCAAATAAATAAATAAA [TGCATGCA_site227]” the “gcPBM binding intensity (ln)” value was 7. With “TTTATTATATAAACATGTACACAATTTGGTATATTC [XGTACX_site3112]” the “gcPBM binding intensity (ln)” value was 6.73. For “TATAATAATATTTATTGTACAATTAGTTTAATTCAT [XGTACX_site272]”, the “gcPBM binding intensity (ln)” value was 6.46. In the case of “ACAGCCAATACGGAAACACACAAGTTATTTTATCAT [CACACA_site5507]”, the “gcPBM binding intensity (ln)” value is reported as 6.48. With “AAAGAAAAAAAAAACACACACACACCCATTCAATAT [CACACA_site38]” the “gcPBM binding intensity (ln)” value was 6.85. “TATATGCCTATAAGAAGTACTGTGTAATGTAATATA [XGTACX_site8089]” was tested, and the “gcPBM binding intensity (ln)” value was 6.67. With “AAGAAAAATATATTTATATATATATATATTAAATAT [TGCATGCA_negctrl_site500]” the “gcPBM binding intensity (ln)” value was 6.33. For “TAAACATAAATATGCACACATATACATATATTCATA [CACACA_site2667]”, the “gcPBM binding intensity (ln)” value was 9.75. “ATTCATAAAAGTTGTACATGCAATTTTTTTTTTTTT [TGCATGCA_site270]” was tested, and the “gcPBM binding intensity (ln)” value was 6.63. For “ATTTTGTTATGAAACACACACATATATATATATATA [CACACA_site3650]”, the “gcPBM binding intensity (ln)” value was 9.42. “AATATCTGTATATCCACACACATATATATATATATA [CACACA_site4987]” was tested, and the “gcPBM binding intensity (ln)” value was 9.51. “TAATCGGTAATATTAACACACACATTTATATATATT [CACACA_site8274]” was tested, and the “gcPBM binding intensity (ln)” value was 6.74. For “TAATTTCTTATGTAGTGTACAAATAATATATGATAT [XGTACX_site597]”, the “gcPBM binding intensity (ln)” value was 6.39. For “AAAAGGAGAAATATTGCACACGTGCAAAATGGTATG [CACACA_site4300]”, the “gcPBM binding intensity (ln)” value was 11. For “AATATCACCACATTGTTACTATAATATATAAAAAAG [XGTACX_negctrl_site384]”, the “gcPBM binding intensity (ln)” value was 6.37. In the case of “GTATTAATAAAAATACGTACTTATTATTTATAATAA [XGTACX_site7672]”, the “gcPBM binding intensity (ln)” value is reported as 5.93. For “ATTATTCATATAACACGTACAAAACGAAAAACAAAT [XGTACX_site3873]”, the “gcPBM binding intensity (ln)” value was 7.23. “ATGATAAAATTATGTAGTACATATTTGAATGTAAAT [XGTACX_site688]” was tested, and the “gcPBM binding intensity (ln)” value was 6.35. “ATATATGTAACATATTGTACATATATGTATGTATGT [XGTACX_site3281]” was tested, and the “gcPBM binding intensity (ln)” value was 6.97. For “TATTATTATTATTACACACACAATTATATTTACCCC [CACACA_site503]”, the “gcPBM binding intensity (ln)” value was 7.46. In the case of TCGTGGTTTTAATAAGTGCGCAATTTAAATATTTTT, the “gcPBM binding intensity (ln)” value is reported as 9.8.

— the supplement of paper PMC11417369
